Consider 10 molecules from publication PMC5766592.

Chains of the proteins cited; added tags and fusions are not shown. Lines headed by an entry give the natural chain unless they say otherwise; changes in a name come on top. Residues count along the entry.
UniProt O35718: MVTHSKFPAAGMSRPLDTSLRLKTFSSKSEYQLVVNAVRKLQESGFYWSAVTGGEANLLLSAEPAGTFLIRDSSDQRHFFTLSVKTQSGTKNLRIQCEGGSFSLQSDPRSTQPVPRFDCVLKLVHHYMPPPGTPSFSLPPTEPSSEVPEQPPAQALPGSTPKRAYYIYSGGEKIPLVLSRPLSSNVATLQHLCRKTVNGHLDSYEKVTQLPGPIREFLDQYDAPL
ΔSH2 SOCS3 (amino acids 46-142) GFP fusion protein: residues 46-142 of O35718
SOCS3 SOCS box domain-only (amino acids 177-225) GFP fusion protein: residues 177-225 of O35718
UniProt O14543: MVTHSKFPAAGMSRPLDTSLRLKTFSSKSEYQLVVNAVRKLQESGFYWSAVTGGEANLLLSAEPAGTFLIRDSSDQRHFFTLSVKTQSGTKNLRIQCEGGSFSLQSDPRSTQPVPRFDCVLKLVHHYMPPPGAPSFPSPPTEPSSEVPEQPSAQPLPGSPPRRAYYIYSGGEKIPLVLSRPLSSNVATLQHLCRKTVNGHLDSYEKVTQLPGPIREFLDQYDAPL

These are yes or no findings as the source states them, for the method shown. In cells and extracts the contact can be indirect. Some results given as binding are weak or reduced against the parent protein; the word gives no strength. For some of these results: Tags and fused reporters may be left off the sequences shown.

Experiment [1] deals with T1, endogenous cavin-1 of AS-M.5 human angiosarcoma-derived endothelial cells (human (endogenous in AS-M.5)) (UniProt Q6NZI2).
T1 sequence: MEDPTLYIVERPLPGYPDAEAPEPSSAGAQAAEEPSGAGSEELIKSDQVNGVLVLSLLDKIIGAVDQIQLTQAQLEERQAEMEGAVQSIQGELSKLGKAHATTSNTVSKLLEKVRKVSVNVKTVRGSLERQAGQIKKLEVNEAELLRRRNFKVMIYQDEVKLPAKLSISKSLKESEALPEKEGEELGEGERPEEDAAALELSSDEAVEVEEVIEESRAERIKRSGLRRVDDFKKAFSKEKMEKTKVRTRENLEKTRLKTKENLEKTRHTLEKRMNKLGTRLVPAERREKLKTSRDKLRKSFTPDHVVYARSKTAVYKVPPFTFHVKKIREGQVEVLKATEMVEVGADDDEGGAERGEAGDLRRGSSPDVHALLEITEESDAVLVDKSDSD
In words: co-IP; endogenous proteins; WT and SOCS3-null AS-M.5 cells treated with 50 μM Fsk and 6 μM MG132 for 4 h; IP with anti-cavin-1 antibody and protein G-Sepharose; immunoblot for SOCS3. (Immunoblotting shows a protein as a band on a membrane.)

Experiment [2] has as its target Flag-tagged WT murine SOCS3 (suppressor of cytokine signalling 3) (murine) (UniProt O35718). The experiment in a line: co-IP; soluble extracts of co-transfected HEK293 cells; IP with anti-Flag M2-agarose beads overnight at 4 °C; co-IP buffer 50 mM HEPES pH 7.4, 120 mM NaCl, 5 mM EDTA, 10% glycerol, 1% Triton X-100; immunoblot; in one panel cells treated with or without sodium orthovanadate (1 mM) and H2O2 (0.2 mM).

Experiment [3] addresses Full-length murine WT SOCS3 GFP fusion protein (murine) (UniProt O35718). In words: co-IP; soluble extracts of co-transfected HEK293 cells; IP with anti-GFP antibody and protein G-Sepharose beads; immunoblot for myc-tagged cavin-1.
Experiment [4] addresses ΔSH2 SOCS3 (amino acids 46-142) GFP fusion protein (murine) (UniProt O35718). The description is as above.
Experiment [5] has as its target SOCS3 SOCS box domain-only (amino acids 177-225) GFP fusion protein (murine) (UniProt O35718). The description is as above.
The next experiment concerns the target HA-SOCS3 (UniProt O35718). In words: co-IP; Flag-cavin-1 and HA-SOCS3 (Supplementary Fig. 3); which protein was precipitated is not given.

For “endogenous SOCS3 of AS-M.5 human angiosarcoma-derived endothelial cells (from UniProt O14543 1-225)”, the binding entry in experiment [1] is “binds”.

B1: Myc-tagged murine cavin-1 truncation mutant C3 (amino acids 1-192) (domain or fragment, UniProt O54724 1-192)
chain: MEDVTLHIVERPYSGFPDASSEGPEPTQGEARATEEPSGTGSDELIKSDQVNGVLVLSLLDKIIGAVDQIQLTQAQLEERQAEMEGAVQSIQGELSKLGKAHATTSNTVSKLLEKVRKVSVNVKTVRGSLERQAGQIKKLEVNEAELLRRRNFKVMIYQDEVKLPAKLSVSKSLKESEALPEKEGDELGEGE
Take B1: the binding entry in experiment [2] is given as “binds”.

B2: Myc-tagged murine cavin-1 truncation mutant N1 (amino acids 74-392) (domain or fragment, UniProt O54724 74-392)
chain: QAQLEERQAEMEGAVQSIQGELSKLGKAHATTSNTVSKLLEKVRKVSVNVKTVRGSLERQAGQIKKLEVNEAELLRRRNFKVMIYQDEVKLPAKLSVSKSLKESEALPEKEGDELGEGERPEDDTAAIELSSDEAVEVEEVIEESRAERIKRSGLRRVDDFKKAFSKEKMEKTKVRTRENLEKTRLKTKENLEKTRHTLEKRMNKLGTRLVPVERREKLKTSRDKLRKSFTPDHVVYARSKTAVYKVPPFTFHVKKIREGEVEVLKATEMVEVGPEDDEVGAERGEATDLLRGSSPDVHTLLEITEESDAVLVDKSDSD
Take B2: the binding result in experiment [2] is recorded as “binds”.

B3: Myc-tagged murine cavin-1 truncation mutant C4 (amino acids 1-249) (domain or fragment, UniProt O54724 1-249)
chain: MEDVTLHIVERPYSGFPDASSEGPEPTQGEARATEEPSGTGSDELIKSDQVNGVLVLSLLDKIIGAVDQIQLTQAQLEERQAEMEGAVQSIQGELSKLGKAHATTSNTVSKLLEKVRKVSVNVKTVRGSLERQAGQIKKLEVNEAELLRRRNFKVMIYQDEVKLPAKLSVSKSLKESEALPEKEGDELGEGERPEDDTAAIELSSDEAVEVEEVIEESRAERIKRSGLRRVDDFKKAFSKEKMEKTKVR
Take B3: in experiment [2], the binding result is “binds”.

B4: Myc-tagged murine cavin-1 truncation mutant N3 (amino acids 193-392) (domain or fragment, UniProt O54724 193-392)
chain: RPEDDTAAIELSSDEAVEVEEVIEESRAERIKRSGLRRVDDFKKAFSKEKMEKTKVRTRENLEKTRLKTKENLEKTRHTLEKRMNKLGTRLVPVERREKLKTSRDKLRKSFTPDHVVYARSKTAVYKVPPFTFHVKKIREGEVEVLKATEMVEVGPEDDEVGAERGEATDLLRGSSPDVHTLLEITEESDAVLVDKSDSD
Consider B4, for which the binding entry in experiment [2] is “binds”.

B5: Myc-tagged murine cavin-1 truncation mutant N2 (amino acids 168-392) (domain or fragment, UniProt O54724 168-392)
chain: LSVSKSLKESEALPEKEGDELGEGERPEDDTAAIELSSDEAVEVEEVIEESRAERIKRSGLRRVDDFKKAFSKEKMEKTKVRTRENLEKTRLKTKENLEKTRHTLEKRMNKLGTRLVPVERREKLKTSRDKLRKSFTPDHVVYARSKTAVYKVPPFTFHVKKIREGEVEVLKATEMVEVGPEDDEVGAERGEATDLLRGSSPDVHTLLEITEESDAVLVDKSDSD
For B5, the binding result in experiment [2] is given as “binds”.

B6: Myc-tagged murine cavin-1 truncation mutant N4 (amino acids 250-392) (domain or fragment, UniProt O54724 250-392)
chain: TRENLEKTRLKTKENLEKTRHTLEKRMNKLGTRLVPVERREKLKTSRDKLRKSFTPDHVVYARSKTAVYKVPPFTFHVKKIREGEVEVLKATEMVEVGPEDDEVGAERGEATDLLRGSSPDVHTLLEITEESDAVLVDKSDSD
As for B6, in experiment [2], the binding result is reported as “binds”.

B7: Myc-tagged murine cavin-1 truncation mutant C2 (amino acids 1-167) (domain or fragment, UniProt O54724 1-167)
chain: MEDVTLHIVERPYSGFPDASSEGPEPTQGEARATEEPSGTGSDELIKSDQVNGVLVLSLLDKIIGAVDQIQLTQAQLEERQAEMEGAVQSIQGELSKLGKAHATTSNTVSKLLEKVRKVSVNVKTVRGSLERQAGQIKKLEVNEAELLRRRNFKVMIYQDEVKLPAK
As for B7, in experiment [2], the binding entry is “binds”.

B8: Myc-tagged WT murine cavin-1 (protein, UniProt O54724 1-392)
chain: MEDVTLHIVERPYSGFPDASSEGPEPTQGEARATEEPSGTGSDELIKSDQVNGVLVLSLLDKIIGAVDQIQLTQAQLEERQAEMEGAVQSIQGELSKLGKAHATTSNTVSKLLEKVRKVSVNVKTVRGSLERQAGQIKKLEVNEAELLRRRNFKVMIYQDEVKLPAKLSVSKSLKESEALPEKEGDELGEGERPEDDTAAIELSSDEAVEVEEVIEESRAERIKRSGLRRVDDFKKAFSKEKMEKTKVRTRENLEKTRLKTKENLEKTRHTLEKRMNKLGTRLVPVERREKLKTSRDKLRKSFTPDHVVYARSKTAVYKVPPFTFHVKKIREGEVEVLKATEMVEVGPEDDEVGAERGEATDLLRGSSPDVHTLLEITEESDAVLVDKSDSD
Consider B8, for which the binding result in experiment [2] is “binds”; in experiment [3] it was “binds”; in experiment [4] it was “binds”; in experiment [5], “no binding”.

B9: Flag-cavin-1 (protein, UniProt O54724 1-392)
chain: MEDVTLHIVERPYSGFPDASSEGPEPTQGEARATEEPSGTGSDELIKSDQVNGVLVLSLLDKIIGAVDQIQLTQAQLEERQAEMEGAVQSIQGELSKLGKAHATTSNTVSKLLEKVRKVSVNVKTVRGSLERQAGQIKKLEVNEAELLRRRNFKVMIYQDEVKLPAKLSVSKSLKESEALPEKEGDELGEGERPEDDTAAIELSSDEAVEVEEVIEESRAERIKRSGLRRVDDFKKAFSKEKMEKTKVRTRENLEKTRLKTKENLEKTRHTLEKRMNKLGTRLVPVERREKLKTSRDKLRKSFTPDHVVYARSKTAVYKVPPFTFHVKKIREGEVEVLKATEMVEVGPEDDEVGAERGEATDLLRGSSPDVHTLLEITEESDAVLVDKSDSD
Regarding B9, the binding entry with HA-SOCS3 is “binds”.
